The molecules below were run against Recombinant heterodimeric HCV NS3/NS4A protease (strain 1a) (Hepatitis C virus genotype 1a, UniProt P27958) (assay: Spectrophotometric assay for HCV protease inhibitory activity (chromogenic ester substrates)). Settings: Table 1, 30° C., pH 6.5, read-out: Binding Activity (Ki rating).
Assay type: biochemical, hepatitis C virus (strain 1a)
Method: Assay for HCV Protease Inhibitory Activity:
Spectrophotometric Assay: Spectrophotometric assays for the HCV serine protease was performed on the inventive compounds by following the procedure described by R. Zhang et al, Analytical Biochemistry, 270 (1999) 268-275, the disclosure of which is incorporated herein by reference. The assay based on the proteolysis of chromogenic ester substrates is suitable for the continuous monitoring of HCV NS3 protease activity. The substrates were derived from the P side of the NS5A-NS5B junction sequence (Ac-DTEDVVX(Nva), where X=A or P) whose C-terminal carboxyl groups were esterified with one of four different chromophoric alcohols (3- or 4-nitrophenol, 7-hydroxy-4-methyl-coumarin, or 4-phenylazophenol). Presented below are the synthesis, characterization and application of these novel spectrophotometric ester substrates to high throughput screening and detailed kinetic evaluation of HCV NS3 protease inhibitors. Materials and Methods:
Protein concentrations were determined by the Biorad dye method using recombinant HCV protease standards previously quantified by amino acid analysis. Prior to assay initiation, the enzyme storage buffer (50 mM sodium phosphate pH 8.0, 300 mM NaCl, 10% glycerol, 0.05% lauryl maltoside and 10 mM DTT) was exchanged for the assay buffer (25 mM MOPS pH 6.5, 300 mM NaCl, 10% glycerol, 0.05% lauryl maltoside, 5 μM EDTA and 5 μM DTT) utilizing a Biorad Bio-Spin P-6 prepacked column.
Protease Assay: HCV protease assays were performed at 30° C. using a 200 μl reaction mix in a 96-well microtiter plate. Assay buffer conditions (25 mM MOPS pH 6.5, 300 mM NaCl, 10% glycerol, 0.05% lauryl maltoside, 5 μM EDTA and 5 μM DTT) were optimized for the NS3/NS4A heterodimer (D. L. Sali et al, ibid.)). Typically, 150 μl mixtures of buffer, substrate and inhibitor were placed in wells (final concentration of DMSO≦4% v/v) and allowed to preincubate at 30° C. for approximately 3 minutes. Fifty μls of prewarmed protease (12 nM, 30° C.) in assay buffer, was then used to initiate the reaction (final volume 200 μl). The plates were monitored over the length of the assay (60 minutes) for change in absorbance at the appropriate wavelength (340 nm for 3-Np and HMC, 370 nm for PAP, and 400 nm for 4-Np) using a Spectromax Plus microtiter plate reader equipped with a monochrometer (acceptable results can be obtained with plate readers that utilize cutoff filters). Proteolytic cleavage of the ester linkage between the Nva and the chromophore was monitored at the appropriate wavelength against a no enzyme blank as a control for non-enzymatic hydrolysis. The evaluation of substrate kinetic parameters was performed over a 30-fold substrate concentration range (−6-200 μM). Initial velocities were determined using linear regression and kinetic constants were obtained by fitting the data to the Michaelis-Menten equation using non-linear regression analysis (Mac Curve Fit 1.1, K. Raner). Turnover numbers (kcat) were calculated assuming the enzyme was fully active.
Evaluation of Inhibitors and Inactivators: The inhibition constants (Ki*) for the competitive inhibitors Ac-D-(D-Gla)-L-1-(Cha)-C-OH (27), Ac-DTEDVVA(Nva)-OH and Ac-DTEDWP(Nva)-OH were determined experimentally at fixed concentrations of enzyme and substrate by plotting vo/vi vs. inhibitor concentration ([I]o) according to the rearranged Michaelis-Menten equation for competitive inhibition kinetics: vo/vi=1+[I]o/(Ki(1+[S]o/Km)), where vo is the uninhibited initial velocity, vi is the initial velocity in the presence of inhibitor at any given inhibitor concentration ([I]o) and [S]o is the substrate concentration used. The resulting data were fitted using linear regression and the resulting slope, 1/(Ki(1+[S]o/Km), was used to calculate the Ki* value.

SMILES	Ki [nM]
CC(C)(C)OC(=O)N[C@@H]1C(=O)N2C[C@H]3[C@@H]([C@H]2C(=O)N[C@H](C(=O)C(N)=O)CCCCCCCCCC1(C)C)C3(C)C [Example 16]	≥ 1000
CC1(C)C[C@H]2[C@H](CN3C(=O)[C@@H](NC(=O)OCc4ccccc4)CCCC/C=C/CCCC[C@@H](C(=O)C(N)=O)NC(=O)[C@H]23)O1 [Example 11]	≥ 1000
CC(C)(C)OC(=O)N[C@H]1CCCCCCCCCC[C@@H](C(=O)C(=O)NCC(=O)NCc2ccccc2)NC(=O)[C@@H]2[C@@H]3[C@H](CN2C1=O)C3(C)C [Example 8]	< 100
Cc1ccc(S(=O)(=O)CNC(=O)C(=O)[C@@H]2CCCCCCCCCC[C@H](NC(=O)OC(C)(C)C)C(=O)N3C[C@H]4[C@@H]([C@H]3C(=O)N2)C4(C)C)cc1 [Example 13]	< 100
CN(C)C(=O)[C@@H](NC(=O)CNC(=O)C(=O)[C@@H]1CCCC/C=C/CCCC[C@H](NC(=O)OCc2ccccc2)C(=O)N2C[C@@H]3OC(C)(C)C[C@@H]3[C@H]2C(=O)N1)c1ccccc1 [Example 9]	< 100
CC1(NC(=O)N[C@@H]2C(=O)N3C[C@H]4[C@@H]([C@H]3C(=O)N[C@H](C(=O)C(N)=O)CCCCCCCCCC2(C)C)C4(C)C)CCCCC1 [Example 19]	< 100
CC(C)(C)OC(=O)[C@@H](NC(=O)N[C@@H]1C(=O)N2C[C@H]3[C@@H]([C@H]2C(=O)N[C@H](C(=O)C(N)=O)CCCCCCCCCC1(C)C)C3(C)C)C(C)(C)C [Example 18]	< 100
C=CCNC(=O)C(=O)[C@@H]1CCCCCCCCC[C@H](NC(=O)N[C@H](C(=O)C2CC2)C(C)C)C(=O)N2C[C@H]3[C@@H]([C@H]2C(=O)N1)C3(C)C [Example 29]	< 100

Same assay, conditions: Table 2, 30° C., pH 6.5, read-out: Activity Ki* (nM) (rating)

SMILES	Ki [nM]
CC1(C)[C@@H]2[C@H]3C(=O)N[C@H](C(=O)C(=O)NCC4CC4)CCCCCCCCC[C@H](NC(=O)NC4(CS(=O)(=O)C(C)(C)C)CCCCC4)C(=O)N3C[C@@H]21 [Example 40]	< 100
C=CCNC(=O)C(=O)[C@@H]1CCCCCCCCC[C@H](NC(=O)N[C@H](CN2CCC(C)(C)CC2=O)C(C)(C)C)C(=O)N2C[C@H]3[C@@H]([C@H]2C(=O)N1)C3(C)C [Example 69]	< 100
C=CCNC(=O)C(=O)[C@@H]1CCCCCCCO[C@@H](C)[C@H](NC(=O)NC2(CS(=O)(=O)C(C)(C)C)CCCCC2)C(=O)N2C[C@H]3[C@@H]([C@H]2C(=O)N1)C3(C)C [Example 74]	< 100
CCNC(=O)C(=O)[C@@H]1CCCCCCCCC[C@H](NC(=O)N[C@H](CN(C)S(=O)(=O)c2cccs2)C(C)(C)C)C(=O)N2C[C@H]3[C@@H]([C@H]2C(=O)N1)C3(C)C [Example 37]	< 100
CCNC(=O)C(=O)[C@@H]1CCCCCCCCC[C@H](NC(=O)NC2(CS(=O)(=O)C(C)(C)C)CCCCC2)C(=O)N2C[C@H]3[C@@H]([C@H]2C(=O)N1)C3(C)C [Example 38]	< 100
CC1(C)CCN(C[C@@H](NC(=O)N[C@H]2COCCCCCCC[C@@H](C(=O)C(=O)NC3CC3)NC(=O)[C@@H]3[C@@H]4[C@H](CN3C2=O)C4(C)C)C(C)(C)C)C(=O)C1 [Example 61]	< 100
CCCNC(=O)C(=O)[C@@H]1CCCCCCCCC[C@H](NC(=O)NC2(CS(=O)(=O)C(C)(C)C)CCCCC2)C(=O)N2C[C@H]3[C@@H]([C@H]2C(=O)N1)C3(C)C [Example 43]	< 100
C=CCNC(=O)C(=O)[C@@H]1CCCCCCCOC[C@H](NC(=O)N[C@H](CN2CCCCC2=O)C(C)(C)C)C(=O)N2C[C@H]3[C@@H]([C@H]2C(=O)N1)C3(C)C [Example 58]	< 100
C=CCNC(=O)C(=O)[C@@H]1CCCCCCCO[C@@H](C)[C@H](NC(=O)N[C@H](CN2C(=O)CC(C)(C)CC2=O)C(C)(C)C)C(=O)N2C[C@H]3[C@@H]([C@H]2C(=O)N1)C3(C)C [Example 65]	< 100
CCCNC(=O)C(=O)[C@@H]1CCCCCCCCC[C@H](NC(=O)N[C@H](CN(C)S(=O)(=O)c2cccs2)C(C)(C)C)C(=O)N2C[C@H]3[C@@H]([C@H]2C(=O)N1)C3(C)C [Example 42]	< 100
C=CCNC(=O)C(=O)[C@@H]1CCCCNC(=O)OCCC[C@H](NC(=O)N[C@H](CN2C(=O)CC(C)(C)CC2=O)C(C)(C)C)C(=O)N2C[C@H]3[C@@H]([C@H]2C(=O)N1)C3(C)C [Example 72]	< 100
C=CCNC(=O)C(=O)[C@@H]1CCCCCCCCC[C@H](NC(=O)N[C@H](CN2C(=O)CC(C)(C)CC2=O)C(C)(C)C)C(=O)N2C[C@H]3[C@@H]([C@H]2C(=O)N1)C3(C)C [Example 51]	< 100
C=CCNC(=O)C(=O)[C@@H]1CCCCCCCOC[C@H](NC(=O)N[C@H](CN2CCC(C)(C)CC2=O)C(C)(C)C)C(=O)N2C[C@H]3[C@@H]([C@H]2C(=O)N1)C3(C)C [Example 59]	< 100
C=CCNC(=O)C(=O)[C@@H]1CCCCCCCOC[C@H](NC(=O)N[C@H](CN(C)S(=O)(=O)c2cccs2)C(C)(C)C)C(=O)N2C[C@H]3[C@@H]([C@H]2C(=O)N1)C3(C)C [Example 55]	< 100
CC(C)(C)OC(=O)N[C@H]1CCCCCCCCC[C@@H](C(=O)C(=O)NCC2CC2)NC(=O)[C@@H]2[C@@H]3[C@H](CN2C1=O)C3(C)C [Example 32]	100 to 1000
CN(C[C@@H](NC(=O)N[C@H]1CCCCCCCCC[C@@H](C(=O)C(=O)NCC2CC2)NC(=O)[C@@H]2[C@@H]3[C@H](CN2C1=O)C3(C)C)C(C)(C)C)S(=O)(=O)c1cccs1 [Example 35]	< 100
CCNC(=O)C(=O)[C@@H]1CCCCCCCCC[C@H](NC(=O)OC(C)(C)C)C(=O)N2C[C@H]3[C@@H]([C@H]2C(=O)N1)C3(C)C [Example 34]	< 100
CC1(C)CC(=O)N(C[C@@H](NC(=O)N[C@H]2COCCCCCCC[C@@H](C(=O)C(=O)NC3CC3)NC(=O)[C@@H]3[C@@H]4[C@H](CN3C2=O)C4(C)C)C(C)(C)C)C(=O)C1 [Example 60]	< 100
C=CCNC(=O)C(=O)[C@@H]1CCCCCCCCC[C@H](NC(=O)N[C@H](CN(C)S(=O)(=O)N(C)C)C(C)(C)C)C(=O)N2C[C@H]3[C@@H]([C@H]2C(=O)N1)C3(C)C [Example 47]	< 100
C=CCNC(=O)C(=O)[C@@H]1CCCCCCCOC[C@H](NC(=O)N[C@H](CN2C(=O)CC(C)(C)CC2=O)C(C)(C)C)C(=O)N2C[C@H]3[C@@H]([C@H]2C(=O)N1)C3(C)C [Example 56]	< 100
CCNC(=O)C(=O)[C@@H]1CCCCCCCCC[C@H](NC(=O)N[C@H](CN2CCC(C)(C)CC2=O)C(C)(C)C)C(=O)N2C[C@H]3[C@@H]([C@H]2C(=O)N1)C3(C)C [Example 70]	< 100
C=CCNC(=O)C(=O)[C@@H]1CCCCCCCO[C@@H](C)[C@H](NC(=O)N[C@H](CN(C)S(=O)(=O)CC)C(C)(C)C)C(=O)N2C[C@H]3[C@@H]([C@H]2C(=O)N1)C3(C)C [Example 66]	< 100

Same assay, conditions: Table 2A, 30° C., pH 6.5, read-out: Binding Activity (Ki rating)

SMILES	Ki [nM]
CC(C)COC(=O)N[C@H]1CC/C=C/CCCC(C(=O)C(=O)NCC(=O)N[C@H](C(=O)O)c2ccccc2)NC(=O)[C@@H]2CCCN2C1=O (stereo partly drawn) [Example 80]	≥ 1000
CC(C)COC(=O)N[C@H]1CCCCCCCC(C(=O)C(=O)NCC(=O)N[C@H](C(=O)O)c2ccccc2)NC(=O)[C@@H]2CCCN2C1=O (stereo partly drawn) [Example 84]	100 to 1000
CC(C)COC(=O)N[C@H]1CCC2OC2CCCC(C(=O)C(=O)NCC(=O)N[C@H](C(=O)OC(C)(C)C)c2ccccc2)NC(=O)[C@@H]2CCCN2C1=O (stereo partly drawn) [Example 87]	≥ 1000
COCC(=O)CNC(=O)C(=O)C1CCCCCCC[C@H](NC(=O)OCC(C)C)C(=O)N2CCC[C@H]2C(=O)N1 (stereo partly drawn) [Example 85]	≥ 1000
CC(C)COC(=O)N[C@H]1CCCCCCCC(C(=O)C(=O)NCC(=O)O)NC(=O)[C@@H]2CCCN2C1=O (stereo partly drawn) [Example 86]	≥ 1000

Same assay, conditions: Table 3, 30° C., pH 6.5, read-out: Activity Ki*

SMILES	Ki [nM]
C=CCNC(=O)C(=O)[C@@H]1CCCCCCCCC[C@H](NC(=O)N[C@H](C(=O)C2CC2)C(C)C)C(=O)N2C[C@H]3[C@@H]([C@H]2C(=O)N1)C3(C)C [Example 29]	20

— patent US7592419B2, “Macrocyclic inhibitors of hepatitis C virus NS3-serine protease” (Schering Corporation, priority 2003, dated 2009)
